Reference: PubChem BioAssay AID2675 (National Center for Advancing Translational Sciences (NCATS), 2010)
The campaign covered roughly 280,000 compounds. About 100 (0.036%) were called active. Inconclusive results, whose numbers are uncertain, are shown with a selection of clear calls. Calls follow the shape of the dose curve; as a rule, active = well fitted inhibition curve with a large enough effect in the signal ratio, with a control signal flat (not every such curve was filed as active); inconclusive = small, poorly fitted or top-dose-only effect, or effect the other way, or a change in a side signal; inactive = no such curve, though single readings can be large or run the other way; the % refers to the signal ratio. Potencies beside an inconclusive call are fits to weak or partial responses and may not hold up. “Side channel” marks fits to a control or component signal instead of the main read-out.

molecular target: Muscleblind-like protein 1 (Homo sapiens) (UniProt Q9NR56); experiment: qHTS Assay for Inhibitors of MBNL1-poly(CUG) RNA binding; conditions: TR-FRET MBNL1-His/biotin-(CUG)12 binding, 665/545 ratio; series mostly up to 57.5 µM
Outline: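 Inhibition of protein-RNA binding appears as loss of TR-FRET between terbium anti-His antibody on MBNL1-His and streptavidin-XL665 on biotin-(CUG)12. Activity is normalized to buffer-only and uninhibited-complex controls.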
Potency is read from the fitted curve at half-maximal effect; tags tell the direction and shape of the fitted curve or compound fluorescence and quenching.

UniProt Q9NR56, sequence (Q9NR56 whole entry, looked up): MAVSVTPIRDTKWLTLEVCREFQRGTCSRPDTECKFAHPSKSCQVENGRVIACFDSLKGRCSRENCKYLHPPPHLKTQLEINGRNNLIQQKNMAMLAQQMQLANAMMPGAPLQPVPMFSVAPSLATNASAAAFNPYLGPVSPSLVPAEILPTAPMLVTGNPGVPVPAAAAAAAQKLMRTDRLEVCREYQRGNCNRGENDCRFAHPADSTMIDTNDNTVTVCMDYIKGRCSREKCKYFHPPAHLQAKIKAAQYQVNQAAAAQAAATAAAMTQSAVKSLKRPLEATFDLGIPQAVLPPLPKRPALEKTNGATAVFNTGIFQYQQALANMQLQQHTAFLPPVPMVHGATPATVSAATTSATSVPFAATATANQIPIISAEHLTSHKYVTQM

**Q.** `CCC(C(=O)OC)(C(=O)OC)c1ccc([N+](=O)[O-])cc1` was tested. Which Potency did it give?
**A.** inconclusive: 22.4 µM [quencher, side channel, partial curve]

**Q.** How did the Potency turn out when `COc1cc(/C=N/NC(=O)c2nc(-c3ccccc3)n(-c3ccccc3)n2)ccc1O` was run?
**A.** inactive

**Q.** With `CCN(CC)CCNC(=O)C(=O)NCC1OCCN1S(=O)(=O)c1ccc([N+](=O)[O-])cc1` (configuration not stated) as the compound, how does the Potency read?
**A.** inconclusive: 11.2 µM [quencher, side channel, partial curve]

**Q.** For `CCC(=O)N1CCN(c2ccc(NC(=O)c3ccc(N4CCOCC4)c([N+](=O)[O-])c3)cc2)CC1`, which Potency is on record?
**A.** inconclusive: 3.16 µM [quencher, side channel, single point]

**Q.** Which Potency does the source give for `CCN(CC)c1ccc(/C=N/N2CCOCC2)c(O)c1` here?
**A.** inconclusive: 39.8 µM [quencher, side channel, single point]

**Q.** Which Potency does the source give for `O=C1N/C(=N\S(=O)(=O)Cc2ccccc2)S/C1=C/c1cc([N+](=O)[O-])ccc1O` here?
**A.** inconclusive: 39.8 µM [quencher, side channel, partial curve]

**Q.** `OC[C@H]1O[C@@H](Oc2cc(O)cc(/C=C/c3ccc(O)cc3)c2)[C@H](O)[C@@H](O)[C@@H]1O` was tested. Which Potency did it give?
**A.** inconclusive: 10 µM [quencher, side channel, partial curve]

**Q.** How did the Potency turn out when `O=C(N/N=C/c1cccc2ccccc12)c1cc(C2CC2)[nH]n1` was run?
**A.** inconclusive: 14.1 µM [quencher, side channel, partial curve]

**Q.** For `COc1ccc(CCNC(=O)c2ccc(-c3cccc([N+](=O)[O-])c3)o2)cc1OC`, which Potency is on record?
**A.** inconclusive: 25.1 µM [quencher, side channel, single point]

**Q.** `CCOC(=O)C1=C(C)Nc2nnnn2C1c1cccc(OC)c1OC` (configuration not stated) was tested. Which Potency did it give?
**A.** inactive

**Q.** For `COc1ccc(/C=N\NC(=O)c2ccccc2)cc1COc1ccccc1`, which Potency is on record?
**A.** inconclusive: 35.5 µM [quencher, side channel, partial curve]

**Q.** How did the Potency turn out when `COc1ccc2c(c1)c1ncnc(N3CCN(Cc4ccc5c(c4)OCO5)CC3)c1n2C` was run?
**A.** inactive

**Q.** With `CC(Sc1nncn1-c1ccccc1)C(=O)Nc1cccc([N+](=O)[O-])c1` (configuration not stated) as the compound, how does the Potency read?
**A.** inconclusive: 28.2 µM [quencher, side channel, single point]

**Q.** How did the Potency turn out when `Cc1ccc2nc(SCC(=O)Nc3cc([N+](=O)[O-])ccc3F)[nH]c2c1` was run?
**A.** inconclusive: 35.5 µM [quencher, side channel, partial curve]

**Q.** With `COC(=O)Cn1c(O)c(N=NC(=O)CNC(=O)c2ccc3c(c2)OCCO3)c2ccccc21` as the compound, how does the Potency read?
**A.** inconclusive: 14.1 µM [quencher, side channel, partial curve]

**Q.** Which Potency does the source give for `O=C(O)c1cc([N+](=O)[O-])ccc1NCc1ccccc1` here?
**A.** inconclusive: 25.1 µM [quencher, side channel, single point]

**Q.** With `COCC(C)NC(=O)c1cc2c(ccc3ccccc32)oc1=O` (configuration not stated) as the compound, how does the Potency read?
**A.** inconclusive: 14.1 µM [quencher, side channel, partial curve]

**Q.** For `COc1ccc(OC)c(-n2nnnc2SCC(=O)Nc2cc(C)ccc2OC)c1`, which Potency is on record?
**A.** inconclusive: 17.8 µM [quencher, side channel, partial curve]

**Q.** With `Cc1cc(C(=O)N/N=C/c2sccc2C)no1` as the compound, how does the Potency read?
**A.** inconclusive: 15.8 µM [quencher, side channel, partial curve]

**Q.** For `Oc1c(C(Nc2cccc(C(F)(F)F)c2)c2ccncc2)ccc2cccnc12` (configuration not stated), which Potency is on record?
**A.** inactive

**Q.** `COc1ccc(/C=N/NC(=O)c2cccc(NC(C)=O)c2)c(OC)c1` was tested. Which Potency did it give?
**A.** inconclusive: 12.6 µM [quencher, side channel, partial curve]

**Q.** For `CCOC(=O)CSc1nc2cc3c(cc2cc1C#N)OCO3`, which Potency is on record?
**A.** inconclusive: 39.8 µM [fluorescent, side channel, single point]

**Q.** Which Potency does the source give for `Cc1cc(=O)n2[nH]c(C)c(-c3ccccc3)c2n1` here?
**A.** inactive

**Q.** With `Cc1cc(C(=O)OCC(=O)N2CCOCC2)c2ccccc2n1` as the compound, how does the Potency read?
**A.** inconclusive: 11.2 µM [quencher, side channel, partial curve]

**Q.** For `CC(=O)Oc1cccc(N2C(=O)c3ccccc3C2=O)c1`, which Potency is on record?
**A.** inconclusive: 14.1 µM [quencher, side channel, partial curve]

**Q.** `COc1cccc(C(=O)N/N=C/c2ccc(Oc3ccc([N+](=O)[O-])cn3)c(OC)c2)c1` was tested. Which Potency did it give?
**A.** inconclusive: 35.5 µM [quencher, side channel, single point]

**Q.** `Cn1cc(-c2cc(C(=O)O)on2)cn1` was tested. Which Potency did it give?
**A.** inactive

**Q.** Which Potency does the source give for `COc1ccccc1CNS(=O)(=O)c1cc(CN2C(=O)c3cccnc3C2=O)ccc1OC` here?
**A.** inconclusive: 11.2 µM [quencher, side channel, partial curve]

**Q.** `CCOC(=O)c1c(C)[nH]c(C)c1S(=O)(=O)NCC1CCN(Cc2ccccc2F)CC1` was tested. Which Potency did it give?
**A.** inconclusive: 79.4 µM [inhibitor, single point]

**Q.** With `Cc1ccc(S(=O)(=O)Nc2cc(Cl)c(O)c3ncccc23)cc1` as the compound, how does the Potency read?
**A.** inactive

**Q.** `COc1ccc(OCC(=O)N/N=C/c2ccc(N(C)C)cc2)cc1` was tested. Which Potency did it give?
**A.** inconclusive: 31.6 µM [quencher, side channel, single point]

**Q.** For `O=C(NCc1cccc(C(F)(F)F)c1)C1CC(c2ccccc2[N+](=O)[O-])=NO1` (configuration not stated), which Potency is on record?
**A.** inconclusive: 28.2 µM [quencher, side channel, partial curve]

**Q.** Which Potency does the source give for `O=C(O)c1ccc(N/N=C/c2cc3ccccc3nc2Cl)cc1` here?
**A.** inconclusive: 15.8 µM [quencher, side channel, partial curve]

**Q.** How did the Potency turn out when `Cc1ccc(-c2ccc(/C=C(\C#N)C(N)=S)o2)c([N+](=O)[O-])c1` was run?
**A.** inconclusive: 8.91 µM [quencher, side channel, full curve, poor fit]

**Q.** For `NC(=S)N/N=C/c1ccc(-n2nncc2-c2ccc(Cl)cc2)cc1`, which Potency is on record?
**A.** inconclusive: 31.6 µM [quencher, side channel, partial curve]

**Q.** For `Cc1c(C(=O)N2CCOCC2)c(S(=O)(=O)Nc2ccc(Br)cc2F)c(C)n1C`, which Potency is on record?
**A.** inconclusive: 10 µM [inhibitor, single point]

**Q.** With `Cc1nc(C)c(C(=O)C2=C(O)C(=O)N(CCN(C)C)C2c2cccs2)s1` (configuration not stated) as the compound, how does the Potency read?
**A.** inconclusive: 17.8 µM [quencher, side channel, single point]
